We go through 73 compounds from PubChem BioAssay AID488969 (Vanderbilt High Throughput Screening Facility, 2010).

Whole data set: some 110,000 compounds, median “z-score” near -0.1, cut for the highest 2% near 2. The list shows a part of the results.

The target in this test is Metabotropic glutamate receptor 8 (Rattus norvegicus) (UniProt P70579). Kind of test: mGluR8 Gi/Go-coupled signaling modulation – cell-based, rat, thallium flux, HTS, primary screen (AID 488969). The following applies: HEK293 rat mGluR8, GIRK (G protein-gated inwardly rectifying potassium channel) thallium flux, FluoZin2; at 10 µM; stronger effect = higher value; submaximal glutamate (EC20) added with thallium.
Chain of UniProt P70579 (P70579 whole entry, looked up): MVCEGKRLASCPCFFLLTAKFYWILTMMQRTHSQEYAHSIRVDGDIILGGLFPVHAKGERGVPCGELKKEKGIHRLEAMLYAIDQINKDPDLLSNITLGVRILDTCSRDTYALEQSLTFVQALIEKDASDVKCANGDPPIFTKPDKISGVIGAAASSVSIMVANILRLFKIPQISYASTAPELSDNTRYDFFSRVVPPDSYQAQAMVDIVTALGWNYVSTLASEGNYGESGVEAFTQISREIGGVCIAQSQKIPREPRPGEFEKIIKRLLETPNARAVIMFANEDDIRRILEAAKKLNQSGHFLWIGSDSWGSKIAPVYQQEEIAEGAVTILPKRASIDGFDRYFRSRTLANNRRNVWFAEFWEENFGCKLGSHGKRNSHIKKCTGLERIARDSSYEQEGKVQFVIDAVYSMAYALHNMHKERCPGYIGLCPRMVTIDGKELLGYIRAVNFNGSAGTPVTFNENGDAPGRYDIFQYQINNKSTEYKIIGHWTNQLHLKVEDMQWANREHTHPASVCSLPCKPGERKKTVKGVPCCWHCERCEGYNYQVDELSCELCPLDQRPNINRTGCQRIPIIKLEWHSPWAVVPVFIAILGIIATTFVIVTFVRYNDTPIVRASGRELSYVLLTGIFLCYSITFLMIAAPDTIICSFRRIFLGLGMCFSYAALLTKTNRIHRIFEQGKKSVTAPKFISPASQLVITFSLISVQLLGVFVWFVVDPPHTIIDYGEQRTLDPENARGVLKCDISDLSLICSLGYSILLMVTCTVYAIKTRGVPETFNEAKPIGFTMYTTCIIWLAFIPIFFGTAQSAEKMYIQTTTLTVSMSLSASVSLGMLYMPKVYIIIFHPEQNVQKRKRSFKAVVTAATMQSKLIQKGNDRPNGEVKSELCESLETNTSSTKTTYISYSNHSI
For the compound `C=CCNC(=O)/C(C#N)=C\c1cc(Cl)c(O)c(OCC)c1`, the z-score was -2.8.
Next, `O=C1OCCC1Sc1ncnc2sc3c(c12)CCC3` (stereo not drawn): -0.028; `Cc1ccc(NC2=CC(=O)CC(c3ccc(Cl)cc3)C2)cc1` (stereo not drawn): 0.0314; `O=S(=O)(Nc1nc2ccccc2nc1Nc1ccc2c(c1)OCO2)c1ccccc1`: -0.165.
Next, `COc1cc(CNn2cn[nH]c2=S)cc(Cl)c1OCc1ccccc1`: -0.1; `Cc1ccc2cc3c(NC(=O)CC(C)C)nn(C)c3nc2c1`: -0.274.
Next, `CN(C)CCNC(=O)Cc1ccc([N+](=O)[O-])cc1`: -0.273.
Compound `Clc1ccc(N/N=C/c2ccncc2)cc1Cl` displayed a z-score of 0.00108.
The result for `CCOC(=O)c1ccccc1Oc1c(F)c(F)nc(NCCO)c1F` reads -0.535; that for `CCSc1nnc(-c2cccnc2)n1Cc1ccco1`, -0.371; that for `CC1CCN(CCc2nc3cc(NC(=O)NC4CCCCC4)ccc3n2C)CC1`, -0.109.
`O=C(Nc1ncnc2c1CCC2)C12CC3CC(CC(C3)C1)C2` registered a z-score of 0.0614.
The result for `CCCNC(=O)c1ccccc1NC(=O)Nc1ccccc1C` reads 0.392; that for `COc1cc2c(cc1OC)C(C(=O)N1CCN(c3ccccc3)CC1)C(c1cccs1)N(C)C2=O` (stereo not drawn), 1.09.
The result for `Cc1c(Cl)c([N+](=O)[O-])nn1CC(=O)NC1CCCCC1` reads 0.15; that for `Cc1cnn(C(=O)c2cc(-c3ccccc3)nc3ccccc23)c1`, -0.147.
The result for `Nc1ccc(C(=O)OCC(=O)Nc2ccc3c(c2)OCO3)cc1[N+](=O)[O-]` reads 0.149; that for `O=S(=O)(NC1=NCCCCC1)c1ccc2ccccc2c1`, -0.393.
Compound `Cc1cc(Nc2ccc(Cl)cc2)n(-c2ccccc2)n1` gave a z-score of -0.464.
Next, `COc1ccc(OC)c(C(c2nnnn2C2CCCC2)N2CCN(c3ccccc3F)CC2)c1` (stereo not drawn): -0.346.
Compound `CC(=O)Nc1c(NC(C)C)c2ccccc2oc1=O` showed a z-score of -0.112.
Next, `CC1CCN(C(=O)CCCOc2ccc(Cl)cc2)CC1`: -0.565; `CC(=O)Oc1ccc(Cl)cc1/C=C/c1ccc2ccccc2n1`: -0.219.
The result for `Cc1cccc(NC(=S)NC2CC3CCC(C2)N3Cc2ccco2)c1C` (stereo not drawn) reads -0.184.
`Nc1nc(Br)c2c(F)cccc2c1-c1ccccc1` gave a z-score of 0.0016.
The result for `O=c1cc(CO)occ1OCc1ccccc1` reads -0.141.
Next, `Cc1ccc(S(=O)(=O)Nc2c(C)n(C)n(-c3ccccc3)c2=O)cc1`: 0.244; `CCOC(=O)C(OC(=O)c1sc(=S)n(C)c1C)C(C)=O` (stereo not drawn): -0.351.
The result for `Cc1nc(SCC(=O)O)c2oc3ccccc3c2n1` reads -0.0394; that for `CNC(=O)C1=NCCCc2cc(OC)c(OC)cc21`, 0.141.
`O=C(O)CCN1C(=O)c2ccc(Oc3ccc4c(c3)C(=O)N(CCC(=O)O)C4=O)cc2C1=O` registered a z-score of -0.299.
In turn, `Cc1cc(C)c(NC(=O)CS(=O)CC(=O)NCC2CCCO2)c(C)c1` (stereo not drawn) came in with a z-score of -0.212.
Compound `CCOc1c(Cl)cc(CNCC(C)C)cc1Cl` returned a z-score of 0.367.
Next, `O=C(Cn1cncn1)NCc1cccc2ccccc12`: -0.0174; `CCN1CCCC1CNc1ncnc2c1[nH]c1ccc(F)cc12` (stereo not drawn): 2.55; `O=S(=O)(Nc1ccc(N2CCOCC2)cc1)c1ccc(Cl)s1`: -0.104.
Next, `COCCNC(=O)c1ccc(NS(C)(=O)=O)cc1`: -0.321; `CCCCOCCCNC(=O)Cc1ccccc1OC`: -1.07.
The result for `O=[N+]([O-])c1ccc(COc2ccc(-c3[nH]ncc3-c3ccccc3)c(O)c2)cc1` reads 0.418; that for `CCc1cc(=O)oc2c(CN3CCN(C)CC3)c(O)c(Cl)cc12`, 0.172; that for `Nc1c(C(=O)NC2CC2)sc2nc3c(c(-c4ccco4)c12)CC/C3=C/c1ccco1`, -0.208.
The compound `Cc1ccc(CNC(=O)C23CN(Cc4ccccc4)CC2C(c2cccc([N+](=O)[O-])c2)=NO3)cc1` (stereo not drawn) had a z-score of -0.0916.
Next, `N#Cc1c(N)nc(SCC(=O)C23CC4CC(CC(C4)C2)C3)c(C#N)c1-c1ccc(Cl)cc1`: -0.933; `O=C(Nc1cccc2cccc(NC(=O)c3ccco3)c12)c1ccco1`: -0.0463; `COC(=O)c1ccc(CN(c2ccccc2OC)S(=O)(=O)c2cccs2)o1`: -0.365.
The result for `N#CCCn1c(-c2nonc2NC(=O)c2ccccc2Cl)nc2ccccc21` reads -1.16; that for `CCn1c(SCC(=O)Nc2nc(C)c(C(=O)OC)s2)nnc1C(C)C`, 0.437; that for `O=C(CSc1nc2ccccc2c(=O)n1CCC(=O)N1CCCCC1)NCc1ccccc1`, -1.42.
Next, `COc1c(Cl)cc(Cl)cc1/C=N/n1cnnc1`: -0.0431; `COc1ccccc1N1C(=O)C2ON(c3ccccc3)C(c3ccc(N(C)C)cc3)C2C1=O` (stereo not drawn): 0.0686.
As to `CCOc1ccc(OCC)c(NC(=O)CCn2cccc2)c1`, the z-score is -0.394.
On to `COC(=O)c1cnc2ccccc2n1`, for which the z-score was -0.159.
Next, `CCc1ccc(-c2cc(C(F)(F)F)n3nc(C(=O)Nc4c(C)nn(Cc5ccccc5C)c4C)cc3n2)s1`: -0.0611; `CN(CCC#N)c1ccc(/C=C(\C#N)c2ccccn2)cc1`: -0.331; `CCOc1ccccc1N/C(=N/c1nc(C)cc(C)n1)NC(=O)Nc1ccc(Cl)c(Cl)c1`: 0.254.
Next, `COC(=O)C(C)Oc1ccc2c3c(c(=O)oc2c1)CCCCC3` (stereo not drawn): -0.318.
The compound `CCOC(=O)C1=C(C)C2C3C(=O)N(c4cc(C)ccc4C)C(=O)C3C1(C)C1C(=O)N(c3cc(C)ccc3C)C(=O)C21` (stereo not drawn) came in with a z-score of 0.469.
Consider `COc1ccc2c(c1)CCc1c(C(=O)NCc3cccnc3)noc1-2`, for which the z-score was -0.358.
`Cc1nnc(-c2ccco2)c2cn(-c3cccc(Br)c3)nc12` gave a z-score of -0.309.
The result for `O=C(OCc1ccccn1)c1ccc(COc2ccccc2Cl)o1` reads -0.106; that for `O=C(CSCc1ccc(F)cc1)N1CCOCC1`, -0.0267.
Next, `O=C(c1cccnc1)N1CCc2ccccc2C1`: 0.587; `CCN(CC)C(=O)COc1ccc2oc(C)c(C(=O)OC(C)C)c2c1`: -0.537.
Next, `Cc1cccc(N(CC(=O)Nc2ccc(F)cc2)S(C)(=O)=O)c1`: 0.171; `COCCCNC(=O)c1ccccc1NS(C)(=O)=O`: -0.124.
`Cc1ccc(C(=O)N2CCN(C(=O)CN3CCCC3)C2)cc1` returned a z-score of -0.0665.
Next, `COc1ccc(/C=C2\C(=O)OCc3cc(OC)c(OC)cc32)cc1OC`: -0.0398; `COc1cccc2c(=O)cc(C)n(CC(=O)Nc3ccccc3C)c12`: -0.331.
Next, `Cc1ccc(SCc2nc3ccccc3n2CC(=O)Nc2ccc(Cl)cc2)cc1`: -0.494.
The result for `C=CCn1c(SCC(=O)NC(N)=O)nnc1-c1cc2c(s1)CCC(CC)C2` (stereo not drawn) reads -1.23; that for `O=C(Cc1ccccc1)N/N=C\c1ccc(Br)o1`, -0.0925; that for `Nn1c(SCC(=O)Nc2nc3ccccc3s2)nncc1=O`, -0.213.
Turning to `O=C(CN1CCCc2ccccc21)N/N=C/c1c(O)ccc2ccccc12`, the z-score is -0.0957.
